Results taken from a collection of fitness landscapes (doi:10.1016/j.celrep.2020.107928).
Whole data set: some 81,000 sequences, median “one-hybrid fitness for binding NBS DNA” near -0.1, cut for the highest 2% near 0.36. The list shows a part of the results.

B1: Caulobacter ParB omega fusion; a variant is named by its letters at X, in order, B8GW30 (parent)
chain: MESVVVGEPGMSEGRRGLGRGLSALLGEVDAAPAQAPGEQLGGSREAPIEILQRNPDQPRRTFREEDLEDLSNSIREKGVLQPILVRPSPDTAGEYQIVAGERAWRAAQRAGLKTVPIMVRELDDLAVLEIGIIENVQRADLNVLEEALSYKVLMEKFERTQENIAQTIGKSXSHVANXMRLLXLPDEVQSYLVSGELTAXHARAIAAAADPVALAKQIIEGGLSVRETEALARKAPNLSAGKSKGGRPPRVKDTDTQALESDLSSVLGLDVSIDHRGSTGTLTITYATLEQLDDLCNRLTRGI

Variants of: B1
Assay: one-hybrid fitness for binding NBS DNA (the Noc-binding site; scaled: cognate 1, non-cognate 0); higher = stronger binding
Details: with NBS DNA site
Method in brief: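 Pre- and post-selection plasmids were Illumina-sequenced, three replicate libraries were pooled, and any variant with under 10 reads was removed. The libraries were Caulobacter ParB with four specificity codons randomised, selected in E. coli USO through a HIS3 reporter whose site is 19 bp from the promoter. Cells grew 48 hours at 37°C on M9 without histidine, with 0.1 mM IPTG and 5 mM 3-AT. Fitness is the log change in variant-to-wild-type read ratio, rescaled against cognate and non-cognate.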

| Variant | one-hybrid fitness for binding NBS DNA |
| --- | --- |
| QLYG | ≤ 0.2 |
| QGYG | ≤ 0.2 |
| PSKK | ≤ 0.2 |
| RQAN | ≤ 0.2 |
| VNAT | ≤ 0.2 |
| MHQG | ≤ 0.2 |
| QLVN | ≤ 0.2 |
| ASRA | ≤ 0.2 |
| RPKS | ≤ 0.2 |
| WAGS | ≤ 0.2 |
| TALV | ≤ 0.2 |
| FPAI | ≤ 0.2 |
| PSHI | ≤ 0.2 |
| HTLC | ≤ 0.2 |
| STTA | ≤ 0.2 |
| SPSV | ≤ 0.2 |
| GTRV | ≤ 0.2 |
| CFRC | ≤ 0.2 |
| PRTP | ≤ 0.2 |
| GMAC | ≤ 0.2 |
| FSNW | ≤ 0.2 |
| GPFT | ≤ 0.2 |
| GMDS | ≤ 0.2 |
| ANIF | ≤ 0.2 |
| DLVT | ≤ 0.2 |

| Variant | one-hybrid fitness for binding NBS DNA |
| --- | --- |
| PPRM | ≤ 0.2 |
| MRKC | ≤ 0.2 |
| APVI | ≤ 0.2 |
| RILH | ≤ 0.2 |
| RLCE | ≤ 0.2 |
| HAMF | ≤ 0.2 |
| DRIW | ≤ 0.2 |
| QSGE | ≤ 0.2 |
| HVTK | ≤ 0.2 |
| HSYF | ≤ 0.2 |
| SCLT | ≤ 0.2 |
| PTMG | ≤ 0.2 |
| FEAM | ≤ 0.2 |
| QVKQ | 0.241 |
| LLGA | ≤ 0.2 |
| HMSA | ≤ 0.2 |
| THTS | ≤ 0.2 |
| QPYD | ≤ 0.2 |
| AVTF | ≤ 0.2 |
| MAQL | ≤ 0.2 |
| FKHT | ≤ 0.2 |
| EWAR | ≤ 0.2 |
| VCAV | ≤ 0.2 |
| QPYQ | ≤ 0.2 |
| DMKY | ≤ 0.2 |

| Variant | one-hybrid fitness for binding NBS DNA |
| --- | --- |
| RHSR | 0.448 |
| PGPY | ≤ 0.2 |
| LWSK | ≤ 0.2 |
| QGGD | ≤ 0.2 |
| VTKL | ≤ 0.2 |
| RDWY | ≤ 0.2 |
| RLSM | ≤ 0.2 |
| WPLE | ≤ 0.2 |
| NYWS | ≤ 0.2 |
| RKQK | ≤ 0.2 |
| NNMQ | ≤ 0.2 |
| QQTC | ≤ 0.2 |
| DARS | ≤ 0.2 |
| KSDY | ≤ 0.2 |
| PRNW | ≤ 0.2 |
| DQMV | ≤ 0.2 |
| RCYY | ≤ 0.2 |
| NGPT | ≤ 0.2 |
| AESC | ≤ 0.2 |
| DRGM | ≤ 0.2 |
| KTCQ | ≤ 0.2 |
| PLIW | ≤ 0.2 |
| NAVN | ≤ 0.2 |
| HYSR | ≤ 0.2 |
| VLTG | ≤ 0.2 |

| Variant | one-hybrid fitness for binding NBS DNA |
| --- | --- |
| WTEG | ≤ 0.2 |
| YLPY | ≤ 0.2 |
| RGHY | ≤ 0.2 |
| GNYR | ≤ 0.2 |
| YSNG | ≤ 0.2 |
| HWYR | ≤ 0.2 |
| SKTA | ≤ 0.2 |
| HKLR | ≤ 0.2 |
| QRRP | 0.359 |
| FTPK | ≤ 0.2 |
| EHDL | ≤ 0.2 |
| TING | ≤ 0.2 |
| IARN | ≤ 0.2 |
| KLNV | ≤ 0.2 |
| GRRS | ≤ 0.2 |
| KCVT | ≤ 0.2 |
| NKKS | ≤ 0.2 |
| VCQR | ≤ 0.2 |
| MDPT | ≤ 0.2 |
| LIKT | ≤ 0.2 |
| CLYS | ≤ 0.2 |
| RESF | ≤ 0.2 |
| YFIS | ≤ 0.2 |
| EARN | ≤ 0.2 |
| RAAV | ≤ 0.2 |

| Variant | one-hybrid fitness for binding NBS DNA |
| --- | --- |
| TLAM | ≤ 0.2 |
| RHIV | ≤ 0.2 |
| MNNG | ≤ 0.2 |
| HDCD | ≤ 0.2 |
| IRER | ≤ 0.2 |
| QASD | ≤ 0.2 |
| FRLA | ≤ 0.2 |
| FFTA | ≤ 0.2 |
| RWVA | ≤ 0.2 |
| TAMP | ≤ 0.2 |
| YRTF | ≤ 0.2 |
| GQAE | ≤ 0.2 |
| LMNM | ≤ 0.2 |
| ANKR | ≤ 0.2 |
| LPAS | ≤ 0.2 |
| AEMS | ≤ 0.2 |
| LVLS | ≤ 0.2 |
| LNLP | ≤ 0.2 |
| LGAW | ≤ 0.2 |
| PYPR | ≤ 0.2 |
| WCGV | ≤ 0.2 |
| ICTF | ≤ 0.2 |
| NHRA | ≤ 0.2 |
| SIMS | ≤ 0.2 |
| TRPD | ≤ 0.2 |

| Variant | one-hybrid fitness for binding NBS DNA |
| --- | --- |
| KFNA | ≤ 0.2 |
| RRNI | 0.36 |
| RLAD | ≤ 0.2 |
| KLPV | ≤ 0.2 |
| ECPM | ≤ 0.2 |
| VMRS | ≤ 0.2 |
| QKLD | ≤ 0.2 |
| ILCS | ≤ 0.2 |
| EVGS | ≤ 0.2 |
| LCVS | ≤ 0.2 |
| KDRF | ≤ 0.2 |
| NKIK | ≤ 0.2 |
| NLNW | ≤ 0.2 |
| NNVG | ≤ 0.2 |
| NAHC | ≤ 0.2 |
| KDQR | ≤ 0.2 |
| NGLF | ≤ 0.2 |
| LGKW | ≤ 0.2 |
| VIYG | ≤ 0.2 |
| PLQT | ≤ 0.2 |
| QAGG | ≤ 0.2 |
| QVPI | ≤ 0.2 |
| STTS | ≤ 0.2 |
| RNHK | ≤ 0.2 |
| TMTS | ≤ 0.2 |

| Variant | one-hybrid fitness for binding NBS DNA |
| --- | --- |
| CPRS | ≤ 0.2 |
| HCCT | ≤ 0.2 |
| AQSK | 0.263 |
| RIKF | ≤ 0.2 |
| IPTE | ≤ 0.2 |
| RTGP | ≤ 0.2 |
| CANA | ≤ 0.2 |
| EKST | ≤ 0.2 |
| SAPE | ≤ 0.2 |
| ARHC | ≤ 0.2 |
| DISS | ≤ 0.2 |
| LGGY | ≤ 0.2 |
| RASF | ≤ 0.2 |
| SHNV | ≤ 0.2 |
| LACG | ≤ 0.2 |
| ISAC | ≤ 0.2 |
| VHHR | ≤ 0.2 |
| LGPP | ≤ 0.2 |
| TCTM | ≤ 0.2 |
| VGYV | ≤ 0.2 |
| TERS | ≤ 0.2 |
| YGPT | ≤ 0.2 |
| TTSA | ≤ 0.2 |
| WQHC | ≤ 0.2 |
| SFLG | ≤ 0.2 |

| Variant | one-hybrid fitness for binding NBS DNA |
| --- | --- |
| EVSY | ≤ 0.2 |
| QYNH | 0.246 |
| WVLV | ≤ 0.2 |
| TGPT | ≤ 0.2 |
| RGLE | ≤ 0.2 |
| MMDG | ≤ 0.2 |
| NVFS | ≤ 0.2 |
| DACF | ≤ 0.2 |
| PQLK | ≤ 0.2 |
| SLKI | ≤ 0.2 |
| LLAQ | ≤ 0.2 |
| HIPP | ≤ 0.2 |
| QWLI | ≤ 0.2 |
| VTHT | ≤ 0.2 |
| RTTY | ≤ 0.2 |
| PATN | ≤ 0.2 |
| QDKY | ≤ 0.2 |
| TDFG | ≤ 0.2 |
| QVHV | ≤ 0.2 |
| KSHW | ≤ 0.2 |
